Screen size: about 310,000 compounds; about 14,000 (4.5%) showed an effect of 50% or more. Effects have a minus sign here. The list shows a part of the results.
Biological target: human ether-à-go-go-related gene (hERG) potassium channel (human, UniProt Q12809)
Test: primary screen, population patch clamp on CHO cells stably expressing hERG
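Also: peak tail current of the secondary pulse compared with the same well before compound.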

Sequence of human ether-à-go-go-related gene (hERG) potassium channel (Q12809 whole entry, looked up): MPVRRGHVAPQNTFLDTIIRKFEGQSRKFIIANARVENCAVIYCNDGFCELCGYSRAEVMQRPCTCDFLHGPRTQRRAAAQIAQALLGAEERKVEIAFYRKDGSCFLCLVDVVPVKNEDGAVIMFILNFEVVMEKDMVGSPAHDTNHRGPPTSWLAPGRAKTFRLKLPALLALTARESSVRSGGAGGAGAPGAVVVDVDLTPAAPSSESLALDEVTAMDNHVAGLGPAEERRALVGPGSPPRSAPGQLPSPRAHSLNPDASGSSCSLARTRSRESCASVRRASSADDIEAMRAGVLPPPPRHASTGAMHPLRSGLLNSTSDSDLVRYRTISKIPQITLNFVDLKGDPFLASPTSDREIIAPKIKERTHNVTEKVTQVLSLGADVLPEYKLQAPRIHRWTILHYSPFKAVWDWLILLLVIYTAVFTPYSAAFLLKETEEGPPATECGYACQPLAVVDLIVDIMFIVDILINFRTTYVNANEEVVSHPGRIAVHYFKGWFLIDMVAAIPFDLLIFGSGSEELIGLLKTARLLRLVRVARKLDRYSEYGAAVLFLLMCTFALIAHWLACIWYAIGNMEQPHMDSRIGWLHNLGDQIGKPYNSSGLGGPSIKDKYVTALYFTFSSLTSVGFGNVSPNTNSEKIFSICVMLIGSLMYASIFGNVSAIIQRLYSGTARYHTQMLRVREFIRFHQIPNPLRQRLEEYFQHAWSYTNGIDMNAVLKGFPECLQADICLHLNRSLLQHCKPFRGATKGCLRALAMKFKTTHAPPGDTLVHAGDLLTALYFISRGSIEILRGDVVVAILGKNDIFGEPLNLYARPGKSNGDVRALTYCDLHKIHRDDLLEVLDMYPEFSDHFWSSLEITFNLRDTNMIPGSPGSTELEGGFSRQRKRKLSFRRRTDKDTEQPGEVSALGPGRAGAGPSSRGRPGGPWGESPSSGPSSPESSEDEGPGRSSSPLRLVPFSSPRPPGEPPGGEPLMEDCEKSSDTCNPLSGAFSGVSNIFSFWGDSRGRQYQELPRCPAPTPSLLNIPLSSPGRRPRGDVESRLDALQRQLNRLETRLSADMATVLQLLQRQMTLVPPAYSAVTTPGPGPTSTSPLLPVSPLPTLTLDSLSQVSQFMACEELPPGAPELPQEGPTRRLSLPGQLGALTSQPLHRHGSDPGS

First: Cc1ccn2nc(S(=O)(=O)Nc3c(F)cccc3F)nc2n1
Second: CCCCC(=O)Nc1ccc(S(=O)(=O)Nc2nccc(C)n2)cc1
The “hERG current change (%, negative = inhibition) at 10uM” value of the first is higher: 18.4% for the first, -26.6% for the second.

Going from CCC(=O)Nc1cccc(-c2nnc(SCC(=O)NCc3ccco3)n2C)c1 to CCOC(=O)CN(C(=O)CSc1nnc(CNc2ccc(F)cc2)n1C)c1ccccc1, the “hERG current change (%, negative = inhibition) at 10uM” value falls from 14.8% to -28.6%.

First: CCOc1ccccc1CNC(CC)CO.Cl (stereo not drawn)
Second: Cc1ccccc1OCCn1ccnc1
The “hERG current change (%, negative = inhibition) at 10uM” value of the first is higher: 11% for the first, 9.63% for the second.

Going from COc1ccc(N=Cc2c(O)n(CC3CCCO3)c(=O)[nH]c2=O)cc1 (stereo not drawn) to COc1ccc(N(C(=O)CNC(=O)c2cccs2)C(C(=O)NCC2CCCO2)c2ccc(OC)c(OC)c2)cc1 (stereo not drawn), the “hERG current change (%, negative = inhibition) at 10uM” value rises from 2.05% to 13%.

Going from CCN(CC)S(=O)(=O)c1ccc(NN=C2CCN(C)CC2)c([N+](=O)[O-])c1 to CCCC(=O)OCC(=O)Nc1cc([N+](=O)[O-])ccc1OC, the “hERG current change (%, negative = inhibition) at 10uM” value rises from -9.03% to 7.17%.

Going from NC(=O)C1CCN(C2=C(Cl)C(=O)c3ccccc3C2=O)CC1 to CC(C)CC(c1nnnn1Cc1ccccc1)N1CCC(C(N)=O)CC1 (stereo not drawn), the “hERG current change (%, negative = inhibition) at 10uM” value falls from 13.6% to 7.71%.

First: O=C(CCc1ccccc1)NC1CCSC1=O (stereo not drawn)
Second: CC1CCCCN1Cc1nc2c(c(=O)n(C)c(=O)n2C)n1CCCc1ccccc1 (stereo not drawn)
The “hERG current change (%, negative = inhibition) at 10uM” value of the first is higher: 3.52% for the first, -6.01% for the second.

Going from Cc1nc2ccccn2c1/C(O)=C1\C(=O)C(=O)N(CCCN(C)C)C1c1ccc(F)cc1 (stereo not drawn) to C=CCOc1cccc(C2c3c(oc4ccc(F)cc4c3=O)C(=O)N2CCCN2CCOCC2)c1 (stereo not drawn), the “hERG current change (%, negative = inhibition) at 10uM” value falls from 9.11% to -12.1%.

First: Cc1cc(C)nc(SCC(=O)Nc2ncc(Cc3cccc(Cl)c3)s2)n1
Second: CCc1ccc2nc(SCC(=O)Nc3ccccc3N3CCOCC3)c(C#N)cc2c1
The “hERG current change (%, negative = inhibition) at 10uM” value of the first is lower: -11.6% for the first, 6.21% for the second.

Going from Cc1ccc(-n2ncc3c(=O)n(CC#N)cnc32)cc1C to COCC(C)n1c(SCc2cc(C(=O)OC)c(C)o2)nc2ccccc2c1=O (stereo not drawn), the “hERG current change (%, negative = inhibition) at 10uM” value rises from 1.53% to 4.04%.

Going from CC(C)(C)c1cc(N2CCOCC2)n2ncc(-c3ccccc3)c2n1 to Cc1ccc(-n2c(SCC(=O)N3CCOCC3)nnc2-c2ccncc2)cc1, the “hERG current change (%, negative = inhibition) at 10uM” value falls from 28.9% to 5.92%.

First: CCOc1ccccc1N(C(=O)c1ccccc1Cl)C1=NC(C)(C)CS1
Second: CN1C(=O)c2ccccc2OC1(C)Cc1ccccc1 (stereo not drawn)
The “hERG current change (%, negative = inhibition) at 10uM” value of the first is lower: -2.51% for the first, 11.3% for the second.

First: O=[N+]([O-])c1ccccc1C1Nc2cccc3cccc(c23)N1
Second: CCc1cccc(N(C)C(N)=Nc2cccc3ccccc23)c1.Cl
The “hERG current change (%, negative = inhibition) at 10uM” value of the first is higher: 11.8% for the first, 8.33% for the second.

Compared with O=C1CC(c2ccccc2)c2ccccc21 (stereo not drawn), C/[N+]([O-])=C1\Cc2ccccc2C1=O is lower in “hERG current change (%, negative = inhibition) at 10uM” value: 8.78% for the first, 3.94% for the second.

Compared with CCC(C)NC(=O)Cn1c(=O)n(-c2ccc(OC)cc2)c(=O)c2ccc(C(=O)NCc3ccc(C)cc3)cc21 (stereo not drawn), COC(=O)c1c(C)oc2ccc(N(C(=O)c3ccncc3)S(=O)(=O)c3ccc4ccccc4c3)cc12 is lower in “hERG current change (%, negative = inhibition) at 10uM” value: 17.5% for the first, 8.21% for the second.

Compared with O=C1CCC(CCC(=O)N2CCCC(C(=O)c3ccc(Cl)cc3)C2)=NN1 (stereo not drawn), O=C(NCCC(=O)N1CCC2(CC1)NCCc1[nH]cnc12)c1cccc(Cl)c1 is higher in “hERG current change (%, negative = inhibition) at 10uM” value: -19.1% for the first, 18.1% for the second.

Going from O=S(=O)(Nc1ccc(S(=O)(=O)N2CCCCCC2)cc1)c1cccs1 to O=C(Cc1ccc(Cl)cc1)Nc1ccc(S(=O)(=O)N2CCOCC2)cc1, the “hERG current change (%, negative = inhibition) at 10uM” value falls from -4.41% to -23.6%.

Going from Cc1ccc(S(=O)(=O)n2c(CN3CCCC(C)C3)nc3ccccc32)cc1 (stereo not drawn) to COc1cc(S(=O)(=O)N(Cc2ccc(C)cc2)C2CCCCC2)ccc1-n1cnnn1, the “hERG current change (%, negative = inhibition) at 10uM” value rises from -14.6% to -5.75%.

Going from CCOC(=O)Nc1cc(C)ccc1OC to COCCNC(=O)c1cc(C)ccc1C, the “hERG current change (%, negative = inhibition) at 10uM” value falls from 11.2% to -1.88%.

Going from Nc1nc(OCC2CCCCC2)c2[nH]cnc2n1 to O=C(NNS(=O)(=O)c1ccc2ccccc2c1)NC1CCCCC1, the “hERG current change (%, negative = inhibition) at 10uM” value rises from -11.2% to 10.6%.

Going from CC(=O)c1ccc(N2CCN(C(=O)c3nn(C)c4c3CS(=O)(=O)c3ccccc3-4)CC2)cc1 to COc1ccc(N2CCN(c3cc(C)nc4ccc(OC)cc34)CC2)cc1, the “hERG current change (%, negative = inhibition) at 10uM” value falls from -64.5% to -69.1%.

Compared with CCC(C)C(=O)Nc1nnc(-c2cccs2)s1 (stereo not drawn), COc1ccc(C(CNC(=O)CCc2ccsc2)N(C)C)cc1 (stereo not drawn) is lower in “hERG current change (%, negative = inhibition) at 10uM” value: -0.158% for the first, -18% for the second.

Compared with CC(=O)Nc1ccc(S(=O)(=O)N2CCC(C(=O)NCCc3c[nH]c4ccccc34)CC2)cc1, C=CCNC(=O)C1CCN(S(=O)(=O)c2ccc3ccccc3c2)CC1 is lower in “hERG current change (%, negative = inhibition) at 10uM” value: 12.4% for the first, -2.93% for the second.

Compared with CCN(Cc1ccccc1)C(c1ccc(C)cc1)c1nnnn1C(C)(C)CC (stereo not drawn), CCN(CC)CCn1c(=N)n(CC(O)COc2cccc(C)c2)c2ccccc21.Cl (stereo not drawn) is lower in “hERG current change (%, negative = inhibition) at 10uM” value: -1.41% for the first, -65.2% for the second.

Compared with COc1cccc(NC(=O)c2oc3ccccc3c2NC(=O)C(C)(C)C)c1, COc1cc(NC(C)=O)ccc1NC(=O)c1cc2ccccc2o1 is higher in “hERG current change (%, negative = inhibition) at 10uM” value: 2.84% for the first, 9.05% for the second.

First: Cc1cccc(NC(=O)CCS(=O)(=O)c2ccc3c(c2)oc(=O)n3C)c1
Second: Cc1nc2ccc(NC(=O)c3cccc(S(=O)(=O)N(C)c4ccccc4)c3)cc2s1
The “hERG current change (%, negative = inhibition) at 10uM” value of the first is higher: 17.9% for the first, -1.29% for the second.

Compared with O=C(NC(=S)Nn1cnnc1)c1ccc(F)cc1Cl, COC(=O)c1ccc(C(=O)Nc2ccc(F)cc2)cc1 is lower in “hERG current change (%, negative = inhibition) at 10uM” value: 20.1% for the first, 1.29% for the second.

First: Cc1ccccc1N(CC(=O)NCCSC1CCCCC1)S(=O)(=O)c1ccccc1
Second: CCCc1cc(=O)[nH]c(SCC(=O)NN(c2ccccc2)c2ccccc2)n1
The “hERG current change (%, negative = inhibition) at 10uM” value of the first is lower: -16% for the first, -1.04% for the second.

Compared with Clc1ccc(-c2nc3ccncc3[nH]2)cc1, O=C(CSc1n[nH]c(-c2ccncc2)n1)Nc1ccc(F)cc1 is higher in “hERG current change (%, negative = inhibition) at 10uM” value: -17.3% for the first, 3.25% for the second.

Compared with CC(=O)NC1=NN(C(C)=O)C(C)(c2ccco2)S1 (stereo not drawn), CN(C)C(=O)c1c(NC(=O)c2ccco2)sc2c1CCCCC2 is lower in “hERG current change (%, negative = inhibition) at 10uM” value: 14.6% for the first, 3.91% for the second.

First: CCc1ccc(NC(=O)N(CCN2CCOCC2)C2CCN(C(C)=O)CC2)cc1
Second: CCOC(=O)C1CCN(C(=S)NC(=O)c2cccs2)CC1
The “hERG current change (%, negative = inhibition) at 10uM” value of the first is lower: 7.54% for the first, 26.4% for the second.

Compared with CC(=O)Nc1ccc(NC(=O)C(C)Sc2n[nH]c(-c3ccc(C)cc3)n2)cc1 (stereo not drawn), C=C(C)COc1ccc(-c2ncncc2-c2ccc(OC)cc2)c(O)c1 is lower in “hERG current change (%, negative = inhibition) at 10uM” value: -4.81% for the first, -11.5% for the second.

Compared with CCCCCC#CCN1CCN(C23CC4CC(CC(C4)C2)C3)CC1, O=C1[C@H]2CC3C=CC2(O3)[C@@H]2OCCCN12 (stereo partly drawn) is higher in “hERG current change (%, negative = inhibition) at 10uM” value: -58.6% for the first, 10.2% for the second.

First: CCN1CCCC1CN(Cc1cc2ccc(C)cc2[nH]c1=O)C(=S)Nc1ccccc1C(=O)OC (stereo not drawn)
Second: COCCCNC(=S)Nc1cccc(S(=O)(=O)NC2=NCCC2)c1
The “hERG current change (%, negative = inhibition) at 10uM” value of the first is lower: -85.2% for the first, 36.7% for the second.

Compared with S=C(N/N=C/c1ccc(Br)cc1)N1CCCCC1, ON=Cc1cccn1-c1ccccc1 is lower in “hERG current change (%, negative = inhibition) at 10uM” value: 13.7% for the first, 9.05% for the second.

First: O=C(OC(C(=O)NCc1ccc(F)cc1)c1ccccc1)c1ccco1 (stereo not drawn)
Second: CC1Cc2ccccc2N1CC(=O)NC(=O)NCc1ccco1 (stereo not drawn)
The “hERG current change (%, negative = inhibition) at 10uM” value of the first is higher: 14.4% for the first, -8.47% for the second.

First: CCCCn1c(N)c(N(CCOC)C(=O)c2ccc(Br)s2)c(=O)[nH]c1=O
Second: CCCn1c(N)c(Sc2ccc(C)cc2)c(=O)n(CCC)c1=O
The “hERG current change (%, negative = inhibition) at 10uM” value of the first is higher: -6.46% for the first, -14.3% for the second.

Compared with COc1ccc(CCNC(=O)c2cccc(Br)c2)cc1OC, COc1ccccc1-n1cnnc1SCC(=O)c1ccc[nH]1 is lower in “hERG current change (%, negative = inhibition) at 10uM” value: 8.56% for the first, -0.89% for the second.

Compared with O=C(c1ccc([N+](=O)[O-])cc1)N(Cc1ccc(Cl)cc1Cl)N1C(=O)CCCC1=O, Cc1ccc(C(=O)c2ccc(CC(=O)[O-])n2C)cc1.O.[Na+] is higher in “hERG current change (%, negative = inhibition) at 10uM” value: -6.85% for the first, 12.9% for the second.

First: Cc1onc(-c2c(Cl)cccc2Cl)c1C(=O)N1CCc2ccccc2C1
Second: COc1ccccc1N1CCN(/N=C/c2c(C)nn(-c3ccccc3)c2C)CC1
The “hERG current change (%, negative = inhibition) at 10uM” value of the first is higher: 5.35% for the first, -25.1% for the second.

First: Cc1n[nH]c(C)c1CCOc1ccc(C(C)C)cc1.Cl
Second: Cc1nc(SCCCSc2n[nH]c(C)n2)n[nH]1
The “hERG current change (%, negative = inhibition) at 10uM” value of the first is lower: 3.59% for the first, 15.7% for the second.

Going from NC(=O)c1nsc(C(=O)N(CC(=O)NCc2ccc3c(c2)OCO3)C2CCCC2)c1N to COc1ccc2oc(C(=O)C3CC3)c(N)c2c1, the “hERG current change (%, negative = inhibition) at 10uM” value rises from -20.5% to -0.711%.

First: N#CC(c1ccccc1)c1cnccn1 (stereo not drawn)
Second: Nc1ccc(S(=O)(=O)NC2(C(F)(F)F)NC(=O)N(Cc3ccccc3)C2=O)cc1 (stereo not drawn)
The “hERG current change (%, negative = inhibition) at 10uM” value of the first is lower: 4.13% for the first, 17.5% for the second.

Going from COC(=O)c1cc(C(=O)OC)cc(-n2c(C)cc(C(=O)CC#N)c2C)c1 to C=CCON/C(CCC)=C1\C(=O)C(C(=O)OC)C(C)(C)CC1=NC (stereo not drawn), the “hERG current change (%, negative = inhibition) at 10uM” value rises from -31.2% to 18.3%.

Compared with CC(C)c1nc(-c2c(N)n(C)c(=O)n(C)c2=O)sc1C(=O)C(C)(C)C, O=S1(=O)CC(O)C(NCc2cccnc2)C1 (stereo not drawn) is lower in “hERG current change (%, negative = inhibition) at 10uM” value: 2.02% for the first, -2.69% for the second.
